# From the antibiotic and cytotoxicity screens of Wong et al. (2023)
# The list shows a part of the results.
# How the values were obtained:
# HSkMC = human skeletal muscle cells; assay: cytotoxicity call (relative viability < 0.9); details: 10 µM
# HepG2 = assay: cytotoxicity call (relative viability < 0.9); details: 10 µM
# S. aureus RN4220 = assay: growth inhibition call (relative growth <= 0.2); details: 50 µM
Structure (SMILES),cytotoxicity call (HSkMC),cytotoxicity call (HepG2),growth inhibition call (S. aureus RN4220)
Cl.Nc1c(Br)cc(Br)cc1CNC1CCC(O)CC1 (stereo not given),inactive,inactive,inactive
C(=CN1CCN(C(c2ccccc2)c2ccccc2)CC1)Cc1ccccc1,inactive,inactive,inactive
COc1ccc2c3c([nH]c2c1)[C@@H](CO)N(C[C@]13CN(C1)S(=O)(=O)C)C(=O)C1CCOCC1,inactive,inactive,inactive
Nc1nnc(N[C@H]2CCCCNC2=O)[nH]1,inactive,inactive,inactive
COC(=O)[C@H]1CCNCCC1=O,inactive,inactive,inactive
Cc1ccc(S(=O)(=O)Nc2ccc3c(c2)C(=O)N([C@H](C)CO)C[C@H](C)[C@H](CN(C)Cc2ccncc2)OCCCC[C@H](C)O3)cc1,inactive,inactive,inactive
COc1ccc(C#Cc2ccc3c(c2)[C@]2(C(=O)N3)[C@H](C(=O)N3CCc4cc(OC)c(OC)cc4C3)[C@H]3C(=O)O[C@H](c4ccccc4)[C@H](c4ccccc4)N3[C@@H]2c2ccc(OCCO)cc2)cc1,inactive,inactive,inactive
C[C@H]1CN([C@@H](C)CO)C(=O)Cc2cc(NC(=O)C3CC3)ccc2O[C@H]1CN(C)C(=O)Nc1ccc2c(c1)OCO2,inactive,inactive,inactive
C[C@@H]1CN([C@H](C)CO)S(=O)(=O)c2ccc(Br)cc2O[C@@H]1CN(C)S(=O)(=O)c1ccc(F)cc1,inactive,inactive,inactive
Cc1noc(C)c1NC(=O)N(C)C[C@H]1Oc2cc(C#CCN(C)C)ccc2S(=O)(=O)N([C@H](C)CO)C[C@@H]1C,inactive,inactive,inactive
COc1ccc(S(=O)(=O)N(C)C[C@H]2Oc3ccc(NS(=O)(=O)c4cccs4)cc3CC(=O)N([C@H](C)CO)C[C@@H]2C)cc1,inactive,inactive,inactive
Cc1coc2c1C(=O)C(=O)c1c-2ccc2c1CCCC2(C)C,active,active,inactive
CN1C[C@H](O)COC[C@H]2O[C@@H](CC(=O)N3CCN(c4ccccc4)CC3)CC[C@@H]21,inactive,inactive,inactive
CNC[C@@H]1Oc2c(NS(=O)(=O)c3cn(C)cn3)cccc2C(=O)N([C@@H](C)CO)C[C@@H]1C,inactive,inactive,inactive
COc1ccc(CCN(C)CCCOc2ccc(S(=O)(=O)c3[nH]c4ccccc4c3C(C)C)cc2)cc1OC,active,active,inactive
COc1ccccc1C#Cc1ccc2c(c1)O[C@@H](CN(C)Cc1cncnc1)[C@H](C)CN([C@H](C)CO)S2(=O)=O,active,inactive,inactive
COc1ccc(CN(C)C[C@H]2OCCCC[C@@H](C)Oc3ccc(NC(=O)NC(C)C)cc3C(=O)N([C@H](C)CO)C[C@H]2C)cc1,inactive,inactive,inactive
C[C@@H]1CN([C@@H](C)CO)C(=O)c2cc(NC(=O)Nc3cccc4ccccc34)ccc2O[C@@H](C)CCCCO[C@H]1CN(C)Cc1ccc(C(=O)O)cc1,inactive,inactive,inactive
C[C@H](CO)N1C[C@H](C)[C@H](CN(C)Cc2ccc(C(F)(F)F)cc2)Oc2c(NC(=O)CCCCCC(=O)Nc3ccccc3N)cccc2C1=O,inactive,inactive,inactive
C[C@H]1CN([C@@H](C)CO)C(=O)Cc2cc(NC(=O)CCCN(C)C)ccc2O[C@H]1CN(C)S(=O)(=O)c1ccc(Cl)cc1,inactive,inactive,inactive
Cc1noc(C)c1S(=O)(=O)Nc1ccc2c(c1)C(=O)N([C@@H](C)CO)C[C@H](C)[C@H](CN(C)S(=O)(=O)c1cn(C)cn1)OCCCC[C@@H](C)O2,inactive,inactive,inactive
C[C@@H]1CN([C@H](C)CO)C(=O)c2cc(NS(=O)(=O)c3ccc(F)cc3)ccc2O[C@H]1CN(C)S(C)(=O)=O,inactive,inactive,inactive
O=C(C[C@@H]1C[C@H]2c3cc(NC(=O)Nc4ccc(C(F)(F)F)cc4)ccc3O[C@H]2[C@H](CO)O1)NCc1cc(F)ccc1F,inactive,inactive,inactive
CCCN(C)C[C@H]1OCCCC[C@@H](C)Oc2ccc(NS(=O)(=O)c3cn(C)cn3)cc2C(=O)N([C@@H](C)CO)C[C@H]1C,inactive,inactive,inactive
C[C@@H]1CN([C@H](C)CO)C(=O)c2cccc(NC(=O)Nc3ccc(C(F)(F)F)cc3)c2O[C@@H]1CN(C)Cc1ccc(Oc2ccccc2)cc1,active,inactive,inactive
C[C@@H]1CCCCO[C@H](CN(C)S(=O)(=O)c2cn(C)cn2)[C@H](C)CN([C@@H](C)CO)C(=O)c2cc(NC(=O)Nc3ccc(C(F)(F)F)cc3)ccc2O1,inactive,inactive,inactive
Nn1c([C@@H](O)c2ccccc2)n[nH]c1=S,inactive,inactive,inactive
CC(C)c1ccc(N2C=Nc3ccc(C(C)C)cc3C2)cc1,inactive,inactive,active

Structure (SMILES),cytotoxicity call (HSkMC),cytotoxicity call (HepG2),growth inhibition call (S. aureus RN4220)
C[C@@H]1CN([C@H](C)CO)C(=O)c2cc(NS(=O)(=O)c3cn(C)cn3)ccc2O[C@@H](C)CCCCO[C@H]1CN(C)S(=O)(=O)c1ccc(F)cc1,inactive,inactive,inactive
CCNC(=O)C[C@H]1CC[C@@H]2[C@@H](COc3ccc(NS(=O)(=O)c4ccccc4C)cc3C(=O)N2C)O1,inactive,inactive,inactive
C[C@H](CO)N1C[C@H](C)[C@H](CN(C)Cc2ccccc2)OCCCC[C@H](C)Oc2ccc(NC(=O)Nc3ccc(C(F)(F)F)cc3)cc2C1=O,active,active,inactive
C[C@H](CO)N1C[C@H](C)[C@@H](CN(C)Cc2ccc(Oc3ccccc3)cc2)Oc2ccc(NC(=O)c3ccncc3)cc2CC1=O,inactive,inactive,inactive
C[C@H](CO)N1C[C@H](C)[C@H](CN(C)C(=O)Nc2ccc(F)cc2)Oc2ncc(Br)cc2C1=O,inactive,inactive,inactive
C[C@H](CO)N1C[C@H](C)[C@@H](CN(C)C(=O)Nc2ccc(F)cc2)OCCCC[C@H](C)Oc2ccc(NC(=O)Nc3ccccc3)cc2C1=O,inactive,inactive,inactive
Clc1ccc(-c2cccs2)nn1,inactive,inactive,inactive
CS(=O)(=O)Nc1ccc2c(c1)[C@@H]1C[C@H](CC(=O)NCc3ccc(-c4ccccc4)cc3)O[C@@H](CO)[C@@H]1O2,inactive,inactive,inactive
C[C@H]1CN([C@@H](C)CO)C(=O)Cc2cc(NC(=O)Cc3cn(C)c4ccccc34)ccc2O[C@H]1CN(C)C,inactive,inactive,inactive
COc1ccccc1CNC(=O)C[C@@H]1C[C@@H]2c3cc(NC(=O)c4cccnc4)ccc3O[C@@H]2[C@H](CO)O1,inactive,inactive,inactive
C[C@H](CO)N1C[C@H](C)[C@H](CN(C)C(=O)Nc2cccc3ccccc23)Oc2ccc(NC(=O)Nc3ccc4c(c3)OCO4)cc2CC1=O,inactive,inactive,inactive
COc1ccccc1C#Cc1cnc2c(c1)C(=O)N([C@@H](C)CO)C[C@H](C)[C@@H](CN(C)C(=O)CC1CC1)O2,inactive,inactive,inactive
COc1ccc(NC(=O)N(C)C[C@H]2OCCCC[C@@H](C)Oc3ccc(NC(=O)Nc4ccc(C(F)(F)F)cc4)cc3C(=O)N([C@H](C)CO)C[C@H]2C)cc1,inactive,active,inactive
C[C@H](CO)N1C[C@H](C)[C@H](CN(C)C(=O)CCC(F)(F)F)OCCCC[C@H](C)Oc2ccc(NC(=O)c3ccccc3)cc2C1=O,inactive,inactive,inactive
COc1ccccc1CNC(=O)C[C@@H]1C[C@@H]2c3cc(NC(=O)Cc4ccncc4)ccc3O[C@@H]2[C@@H](CO)O1,inactive,inactive,inactive
CC(C)NC(=O)N(C)C[C@H]1OCc2cn(nn2)CCCC(=O)N([C@@H](C)CO)C[C@@H]1C,inactive,inactive,inactive
CCC1=NCCO1,inactive,inactive,inactive
COc1ccc(NC(=O)Nc2ccc3c(c2)C(=O)N([C@H](C)CO)C[C@H](C)[C@H](CN(C)Cc2ccc(Cl)c(Cl)c2)OCCCC[C@@H](C)O3)cc1,inactive,inactive,inactive
CO[C@H]1CN(C)C(=O)c2cc(NS(=O)(=O)CC(F)(F)F)ccc2OC[C@H](C)N(C(=O)c2ccc3c(c2)OCO3)C[C@@H]1C,inactive,inactive,inactive
C[C@@H]1CN([C@H](C)CO)C(=O)Cc2cc(NS(=O)(=O)c3ccccc3)ccc2O[C@H]1CN(C)Cc1ccc(Oc2ccccc2)cc1,inactive,active,inactive
C#CCOc1ccc(-c2c(C(=O)NC3CCCCC3)oc(OC)c2S(=O)(=O)c2ccc(Cl)cc2)cc1,inactive,active,inactive
O=C(C[C@H]1CC[C@H](NC(=O)Cc2ccccn2)[C@H](CO)O1)NCCCN1CCOCC1,inactive,inactive,inactive
COc1ccc(C2=N[C@H](c3ccc(Cl)cc3)[C@H](c3ccc(Cl)cc3)N2C(=O)N2CCNC(=O)C2)c(OC(C)C)c1,inactive,inactive,inactive
C=CC[C@@H](CC(=O)N(CCO)Cc1ccccc1)C(=O)N[C@H](COC(=O)[C@@H](CC=C)Cc1ccc(F)cc1)Cc1c[nH]c2ccccc12,active,active,inactive
COCC(=O)Nc1ccc2c(c1)OC[C@H](C)N(Cc1ccccc1OC)C[C@@H](C)[C@H](OC)CN(C)C2=O,inactive,inactive,inactive
C[C@H](CO)N1C[C@H](C)[C@H](CN(C)C(=O)Nc2ccccc2)OCCCC[C@H](C)Oc2ccc(NS(=O)(=O)c3ccc(Cl)cc3)cc2C1=O,inactive,inactive,inactive
COc1ccc(NC(=O)Nc2ccc3c(c2)C(=O)N([C@@H](C)CO)C[C@H](C)[C@@H](CN(C)C(=O)Cc2ccccc2)OCCCC[C@@H](C)O3)cc1,inactive,inactive,inactive
